Source: the supplement of paper PMC8728848
The list shows a part of the results.

Legend:
Test in all cases: glycan array binding signal (z-score within array); higher = stronger binding
Details in all cases: glycan notation: IUPAC condensed, linker removed
Fuc(a1-2)Gal = molecular target: Fuc(a1-2)Gal
How it was run: (§1)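 Glycan array data were curated from 3228 arrays in the Consortium for Functional Glycomics database and kept only where the protein sequence was available. Glycan names were converted to IUPAC-condensed notation, and columns mapping to the same glycan were averaged. The binding signal is a within-array Z-score, averaged across arrays of the same protein sequence at different concentrations or buffers and across linkers. Negative Z-scores can be read as non-binding.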

Fuc(a1-2)Gal(b1-3)GalNAc = molecular target: Fuc(a1-2)Gal(b1-3)GalNAc
How it was run: as §1

[1] = molecular target: Fuc(a1-2)Gal(b1-3)GalNAc(a1-3)[Fuc(a1-2)]Gal(b1-4)Glc
How it was run: as §1

[2] = molecular target: Fuc(a1-2)Gal(b1-3)GalNAc(a1-3)[Fuc(a1-2)]Gal(b1-4)GlcNAc
How it was run: as §1

[3] = molecular target: Fuc(a1-2)Gal(b1-3)GalNAc(b1-3)Gal
How it was run: as §1

[4] = molecular target: Fuc(a1-2)Gal(b1-3)GalNAc(b1-3)Gal(a1-4)Gal(b1-4)Glc
How it was run: as §1

[5] = molecular target: Fuc(a1-2)Gal(b1-3)GalNAc(b1-4)[Neu5Ac(a2-3)]Gal(b1-4)Glc
How it was run: as §1

Fuc(a1-2)Gal(b1-3)GlcNAc = molecular target: Fuc(a1-2)Gal(b1-3)GlcNAc
How it was run: as §1

[6] = molecular target: Fuc(a1-2)Gal(b1-3)GlcNAc(b1-2)Man(a1-3)[Fuc(a1-2)Gal(b1-3)GlcNAc(b1-2)Man(a1-6)]Man(b1-4)GlcNAc(b1-4)GlcNAc
How it was run: as §1

[7] = molecular target: Fuc(a1-2)Gal(b1-3)GlcNAc(b1-2)Man(a1-3)[Fuc(a1-2)Gal(b1-3)GlcNAc(b1-2)Man(a1-6)]Man(b1-4)GlcNAc(b1-4)[Fuc(a1-6)]GlcNAc
How it was run: as §1

[8] = molecular target: Fuc(a1-2)Gal(b1-3)GlcNAc(b1-3)Gal(b1-4)Glc
How it was run: as §1

[9] = molecular target: Fuc(a1-2)Gal(b1-3)GlcNAc(b1-3)GalNAc
How it was run: as §1

[10] = molecular target: Fuc(a1-2)Gal(b1-3)GlcNAc(b1-3)[Fuc(a1-2)Gal(b1-3)GlcNAc(b1-6)]GalNAc
How it was run: as §1

[11] = molecular target: Fuc(a1-2)Gal(b1-3)GlcNAc(b1-3)[Gal(b1-4)GlcNAc(b1-6)]Gal(b1-4)Glc
How it was run: as §1

[12] = molecular target: Fuc(a1-2)Gal(b1-3)GlcNAc(b1-3)[Neu5Ac(a2-6)Gal(b1-4)GlcNAc(b1-6)]Gal(b1-4)Glc
How it was run: as §1

[13] = molecular target: Fuc(a1-2)Gal(b1-3)GlcNAc6S
How it was run: as §1

[14] = molecular target: Fuc(a1-2)Gal(b1-3)[Fuc(a1-4)]GlcNAc
How it was run: as §1

[15] = molecular target: Fuc(a1-2)Gal(b1-3)[Fuc(a1-4)]GlcNAc(b1-2)Man(a1-3)[Fuc(a1-2)Gal(b1-3)[Fuc(a1-4)]GlcNAc(b1-2)Man(a1-3)]Man(b1-4)GlcNAc(b1-4)GlcNAc
How it was run: as §1

[16] = molecular target: Fuc(a1-2)Gal(b1-3)[Fuc(a1-4)]GlcNAc(b1-2)Man(a1-3)[Fuc(a1-2)Gal(b1-3)[Fuc(a1-4)]GlcNAc(b1-2)Man(a1-6)]Man(b1-4)GlcNAc(b1-4)[Fuc(a1-6)]GlcNAc(b1-4)[Fuc(a1-6)]GlcNAc
How it was run: as §1

[17] = molecular target: Fuc(a1-2)Gal(b1-3)[Fuc(a1-4)]GlcNAc(b1-3)[Fuc(a1-3)[Gal(b1-4)]GlcNAc(b1-6)]Gal(b1-4)Glc
How it was run: as §1

[18] = molecular target: Fuc(a1-2)Gal(b1-3)[Fuc(a1-4)]GlcNAc(b1-3)[Gal(b1-4)GlcNAc(b1-6)]Gal(b1-4)Glc
How it was run: as §1

[19] = molecular target: Fuc(a1-2)Gal(b1-4)Fuc(a1-3)]GlcNAc(b1-2)Man(a1-3)[Fuc(a1-2)Gal(b1-4)[Fuc(a1-3)]GlcNAc(b1-2)Man(a1-6)]Man(b1-4)GlcNAc(b1-4)GlcNAc
How it was run: as §1

Fuc(a1-2)Gal(b1-4)Glc = molecular target: Fuc(a1-2)Gal(b1-4)Glc
How it was run: as §1

Fuc(a1-2)Gal(b1-4)Glc6S = molecular target: Fuc(a1-2)Gal(b1-4)Glc6S
How it was run: as §1

Fuc(a1-2)Gal(b1-4)GlcNAc = molecular target: Fuc(a1-2)Gal(b1-4)GlcNAc
How it was run: as §1

[20] = molecular target: Fuc(a1-2)Gal(b1-4)GlcNAc(b1-2)Man
How it was run: as §1

[21] = molecular target: Fuc(a1-2)Gal(b1-4)GlcNAc(b1-2)Man(a1-3)[Fuc(a1-2)Gal(b1-4)GlcNAc(b1-2)Man(a1-6)]Man(b1-4)GlcNAc(b1-4)GlcNAc
How it was run: as §1

[22] = molecular target: Fuc(a1-2)Gal(b1-4)GlcNAc(b1-2)Man(a1-3)[Fuc(a1-2)Gal(b1-4)GlcNAc(b1-2)Man(a1-6)]Man(b1-4)GlcNAc(b1-4)[Fuc(a1-6)]GlcNAc
How it was run: as §1

[23] = molecular target: Fuc(a1-2)Gal(b1-4)GlcNAc(b1-2)[Fuc(a1-2)Gal(b1-4)GlcNAc(b1-4)]Man(a1-3)[Fuc(a1-2)Gal(b1-4)GlcNAc(b1-2)Man(a1-6)]Man(b1-4)GlcNAc(b1-4)GlcNAc
How it was run: as §1

[24] = molecular target: Fuc(a1-2)Gal(b1-4)GlcNAc(b1-3)Gal(b1-4)GlcNAc
How it was run: as §1

[25] = molecular target: Fuc(a1-2)Gal(b1-4)GlcNAc(b1-3)Gal(b1-4)GlcNAc(b1-2)Man(a1-3)[Fuc(a1-2)Gal(b1-4)GlcNAc(b1-3)Gal(b1-4)GlcNAc(b1-2)Man(a1-6)]Man(b1-4)GlcNAc(b1-4)GlcNAc
How it was run: as §1

[26] = molecular target: Fuc(a1-2)Gal(b1-4)GlcNAc(b1-3)Gal(b1-4)GlcNAc(b1-3)Gal(b1-4)GlcNAc
How it was run: as §1

[27] = molecular target: Fuc(a1-2)Gal(b1-4)GlcNAc(b1-3)GalNAc
How it was run: as §1

[28] = molecular target: Fuc(a1-2)Gal(b1-4)GlcNAc(b1-3)[Fuc(a1-2)Gal(b1-4)GlcNAc(b1-6)]GalNAc
How it was run: as §1

[29] = molecular target: Fuc(a1-2)Gal(b1-4)GlcNAc(b1-3)[Fuc(a1-3)[Gal(b1-4)]GlcNAc(b1-6)]Gal(b1-4)Glc
How it was run: as §1

[30] = molecular target: Fuc(a1-2)Gal(b1-4)GlcNAc(b1-6)GalNAc
How it was run: as §1

[31] = molecular target: Fuc(a1-2)Gal(b1-4)GlcNAc6S
How it was run: as §1

B1: MGL2 (Mus musculus), Q8JZN1 (protein)
chain: MTMRYENFQNLEREEKNQEMRNGDKKGGMESPKFALIPSQSFLWRILSWTHLLLFSLGLSLLLLVVISVIGSQNSQLRRDLGTLRAILDNTTSKIKAEFQSLDSRADNFEKGISSLKVDVEDHRQELQAGRDLSQKVTSLESTLEKREQALKTDLSDLTDHVQQLETDLKALTCQLANLKNNGSEVACCPLHWTEHEGSCYWFSESEKSWPEADKYCRLENSHLVVVNSLEEQNFLQNRLANVLSWMGLTDQNGPWRWVDGTDFDKGFKNWRPLQPDNWHGHMLGGGEDCAHFSYDGRWNDDVCQRHYHWICETELGKASSAHSPQLIASVP
With B1 the “glycan array binding signal (z-score)” value (Fuc(a1-2)Gal) was -0.213, the “glycan array binding signal (z-score)” value (Fuc(a1-2)Gal(b1-3)GalNAc) was -0.158 and the “glycan array binding signal (z-score)” value [1] was -0.258. For the same binder, the “glycan array binding signal (z-score)” value [2] was -0.243, the “glycan array binding signal (z-score)” value [3] was -0.155 and the “glycan array binding signal (z-score)” value [4] was -0.128. For the same binder, the “glycan array binding signal (z-score)” value [5] was -0.051, the “glycan array binding signal (z-score)” value (Fuc(a1-2)Gal(b1-3)GlcNAc) was -0.248 and the “glycan array binding signal (z-score)” value [6] was -0.024. The “glycan array binding signal (z-score)” value [7] was -0.201, the “glycan array binding signal (z-score)” value [8] was -0.259 and the “glycan array binding signal (z-score)” value [9] was -0.17. For the same binder, the “glycan array binding signal (z-score)” value [10] was -0.139, the “glycan array binding signal (z-score)” value [11] was -0.191 and the “glycan array binding signal (z-score)” value [12] was -0.188. For the same binder, the “glycan array binding signal (z-score)” value [13] was -0.056, the “glycan array binding signal (z-score)” value [14] was -0.063 and the “glycan array binding signal (z-score)” value [15] was 0.069. The “glycan array binding signal (z-score)” value [16] was -0.208, the “glycan array binding signal (z-score)” value [17] was -0.057 and the “glycan array binding signal (z-score)” value [18] was -0.242. The “glycan array binding signal (z-score)” value [19] was -0.175, the “glycan array binding signal (z-score)” value (Fuc(a1-2)Gal(b1-4)Glc) was -0.182 and the “glycan array binding signal (z-score)” value (Fuc(a1-2)Gal(b1-4)Glc6S) was -0.198. The “glycan array binding signal (z-score)” value (Fuc(a1-2)Gal(b1-4)GlcNAc) was -0.155, the “glycan array binding signal (z-score)” value [20] was -0.026 and the “glycan array binding signal (z-score)” value [21] was -0.014. For the same binder, the “glycan array binding signal (z-score)” value [22] was -0.165, the “glycan array binding signal (z-score)” value [23] was -0.106 and the “glycan array binding signal (z-score)” value [24] was -0.253. For the same binder, the “glycan array binding signal (z-score)” value [25] was -0.236, the “glycan array binding signal (z-score)” value [26] was -0.157 and the “glycan array binding signal (z-score)” value [27] was -0.244. The “glycan array binding signal (z-score)” value [28] was -0.099, the “glycan array binding signal (z-score)” value [29] was -0.299 and the “glycan array binding signal (z-score)” value [30] was 1.79. The “glycan array binding signal (z-score)” value [31] was -0.243.
